Test results: PubChem BioAssay AID504333 (National Center for Advancing Translational Sciences (NCATS), 2011)
About 16,000 (4.4%) of roughly 360,000 compounds were called active. Inconclusive means that the source gave no clear call. Such entries were picked first, then a sample of the others. Calls come from the whole dose curve; as a rule, active = well fitted inhibition curve with a large enough effect; inconclusive = small, poorly fitted or top-dose-only effect; inactive = no such curve, though single readings can be large or run the other way. Potencies beside an inconclusive call are fits to weak or partial responses and may not hold up.

Target: Bromodomain adjacent to zinc finger domain protein 2B (Homo sapiens) (UniProt Q9UIF8)
Test: qHTS Assay for Inhibitors of BAZ2B; note: nearly all actives have a fitted effect of over 60% in size
Settings: AlphaScreen BAZ2B-H3K14Ac peptide displacement; series mostly up to 114 µM
In short: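 Inhibition is scored as reduced AlphaScreen emission. The BAZ2B/b-H3(5-23)K14Ac complex (50 nM each) in PBS pH 7.4, 0.01% Tween-20 meets compound (up to 110 uM) for 30 min at RT before bead addition.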
Potency is the fitted concentration of half-maximal effect; tags give direction and shape of the fitted curve.

Sequence of UniProt Q9UIF8 (Q9UIF8 whole entry, looked up, the tested form may be a part): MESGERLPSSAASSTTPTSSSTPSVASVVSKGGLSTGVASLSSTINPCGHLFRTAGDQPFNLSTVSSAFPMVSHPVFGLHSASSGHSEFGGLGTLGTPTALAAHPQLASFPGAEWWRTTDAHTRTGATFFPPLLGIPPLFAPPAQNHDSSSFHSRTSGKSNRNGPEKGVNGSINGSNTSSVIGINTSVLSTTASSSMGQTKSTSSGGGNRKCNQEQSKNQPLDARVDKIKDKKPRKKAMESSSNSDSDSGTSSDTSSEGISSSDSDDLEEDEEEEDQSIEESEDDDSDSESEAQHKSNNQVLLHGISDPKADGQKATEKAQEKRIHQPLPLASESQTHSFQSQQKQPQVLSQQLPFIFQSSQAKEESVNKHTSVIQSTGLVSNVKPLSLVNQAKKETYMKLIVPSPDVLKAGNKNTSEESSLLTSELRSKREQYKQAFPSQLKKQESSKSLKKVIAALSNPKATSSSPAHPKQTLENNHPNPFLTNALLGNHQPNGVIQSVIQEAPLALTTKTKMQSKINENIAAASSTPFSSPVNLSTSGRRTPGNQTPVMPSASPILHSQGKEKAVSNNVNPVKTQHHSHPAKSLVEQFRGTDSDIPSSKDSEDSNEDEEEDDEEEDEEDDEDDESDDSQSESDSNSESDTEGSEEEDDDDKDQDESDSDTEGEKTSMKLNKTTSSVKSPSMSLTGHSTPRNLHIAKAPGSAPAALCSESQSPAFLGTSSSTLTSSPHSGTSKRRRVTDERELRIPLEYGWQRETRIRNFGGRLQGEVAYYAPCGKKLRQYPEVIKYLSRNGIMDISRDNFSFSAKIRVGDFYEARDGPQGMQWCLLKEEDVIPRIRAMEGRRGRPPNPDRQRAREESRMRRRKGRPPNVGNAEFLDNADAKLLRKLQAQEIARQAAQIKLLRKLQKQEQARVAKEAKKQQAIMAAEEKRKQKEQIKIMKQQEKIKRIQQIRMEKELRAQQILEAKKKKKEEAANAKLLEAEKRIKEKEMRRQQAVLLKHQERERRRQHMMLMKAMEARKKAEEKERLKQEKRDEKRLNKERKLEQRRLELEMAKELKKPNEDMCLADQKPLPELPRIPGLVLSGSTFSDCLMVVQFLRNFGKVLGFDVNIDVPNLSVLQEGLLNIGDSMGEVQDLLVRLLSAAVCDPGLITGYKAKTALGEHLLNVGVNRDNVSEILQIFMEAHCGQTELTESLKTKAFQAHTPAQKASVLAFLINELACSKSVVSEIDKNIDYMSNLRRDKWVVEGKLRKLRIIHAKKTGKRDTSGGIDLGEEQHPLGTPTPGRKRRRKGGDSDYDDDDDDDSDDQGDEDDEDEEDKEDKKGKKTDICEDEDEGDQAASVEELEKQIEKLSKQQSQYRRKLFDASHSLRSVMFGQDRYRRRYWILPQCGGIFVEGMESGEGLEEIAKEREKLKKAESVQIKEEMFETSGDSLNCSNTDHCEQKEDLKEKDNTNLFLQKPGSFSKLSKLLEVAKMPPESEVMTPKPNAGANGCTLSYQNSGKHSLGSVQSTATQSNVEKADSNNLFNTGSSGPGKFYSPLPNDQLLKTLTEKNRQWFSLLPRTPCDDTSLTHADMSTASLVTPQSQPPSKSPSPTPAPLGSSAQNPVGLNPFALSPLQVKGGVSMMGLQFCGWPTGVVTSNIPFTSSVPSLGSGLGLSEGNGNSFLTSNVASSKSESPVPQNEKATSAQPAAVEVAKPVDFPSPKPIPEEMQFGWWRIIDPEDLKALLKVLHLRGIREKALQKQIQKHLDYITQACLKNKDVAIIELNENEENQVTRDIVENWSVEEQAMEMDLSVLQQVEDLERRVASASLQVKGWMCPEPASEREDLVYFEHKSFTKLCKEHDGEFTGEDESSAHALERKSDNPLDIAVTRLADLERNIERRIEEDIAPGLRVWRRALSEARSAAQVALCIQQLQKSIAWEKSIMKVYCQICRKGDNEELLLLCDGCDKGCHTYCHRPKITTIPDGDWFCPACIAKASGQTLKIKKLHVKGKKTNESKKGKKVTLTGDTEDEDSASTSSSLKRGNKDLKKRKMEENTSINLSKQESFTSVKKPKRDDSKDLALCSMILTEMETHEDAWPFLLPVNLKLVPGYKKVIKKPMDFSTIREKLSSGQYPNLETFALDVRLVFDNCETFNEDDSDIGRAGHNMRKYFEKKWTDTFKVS

For `COc1cc2c(cc1OC)C(COc1ccccc1OC)N(C(=O)c1ccc(S(=O)(=O)N(C)C)cc1)CC2` (stereo not drawn), which Potency is on record?
Its Potency is inconclusive: 56.2 µM [inhibitor, partial curve].

With `O=C(CCc1nc2ccccc2c(=O)[nH]1)Nc1ccc(N2CCCCC2)cc1` as the molecule, how does the Potency read?
The Potency was inconclusive: 100 µM [inhibitor, single point].

With `Cc1ccc(Cl)cc1N1CCN(C(=O)COc2cc(=O)n(C)c3ccccc23)CC1` as the molecule, how does the Potency read?
Its Potency is inconclusive: 79.4 µM [inhibitor, single point].

`COc1ccccc1NC(=O)Nc1nc(CC(=O)NCc2cccnc2)cs1` was tested. Which Potency did it give?
Its Potency is “inactive”.

With `Cn1c(=O)[nH]c(=O)c2c1nc(SCC(O)CO)n2CCCc1ccccc1` (stereo not drawn) as the molecule, how does the Potency read?
The Potency was “inactive”.

With `COC(=O)c1cc(S(=O)(=O)N(Cc2ccccc2)C(C)(C)C)c[nH]1` as the molecule, how does the Potency read?
The Potency was inconclusive: 79.4 µM [inhibitor, single point].

Which Potency does the source give for `COc1ccc(N2C(=O)N3[C@H](c4cccc(C)c4)[C@@H]4C(=O)N(Cc5ccccc5)C(=O)[C@@H]4[C@]3(Cc3ccccc3)C2=O)cc1` here?
The Potency was inconclusive: 89.1 µM [inhibitor, single point].

`CCOC(=O)Cn1c(=O)oc2cc(S(=O)(=O)NC3CCCc4ccccc43)ccc21` (stereo not drawn) was tested. Which Potency did it give?
Its Potency is “inactive”.

`COc1cccc(NC(=O)Cn2c(=O)n(-c3ccc(Cl)cc3)c(=O)c3oc4ccccc4c32)c1` was tested. Which Potency did it give?
Its Potency is “inactive”.

`O=C1C(=O)N(c2nccs2)C(c2ccccc2F)/C1=C(\O)c1ccc2c(c1)OCCO2` (stereo not drawn) was tested. Which Potency did it give?
The Potency was active: 50.1 µM.

`S=C(c1ccc(-c2ccc(Cl)cc2Cl)o1)N1CCCCC1` was tested. Which Potency did it give?
The Potency was active: 22.4 µM.

With `Clc1cccc(Cl)c1Cn1cnc(=NCc2ccco2)c2[nH]cnc21` as the molecule, how does the Potency read?
Its Potency is inconclusive: 89.1 µM [inhibitor, single point].

For `CC(=O)NNC(=S)NC(=O)c1ccc(C)cc1`, which Potency is on record?
The Potency was inconclusive: 50.1 µM [inhibitor, partial curve].

With `CCN1C(=O)/C(=C/N(C(C)=O)c2ccccc2)N(c2ccccc2)C1=S` as the molecule, how does the Potency read?
Its Potency is “inactive”.

With `COc1cccc(C(=O)NCC(=O)OCc2cc(=O)n3c(C)csc3n2)c1` as the molecule, how does the Potency read?
The Potency was “inactive”.

For `CC(C)Cn1c(=O)c2sccc2n2c(CCCC(=O)NCCc3ccccc3)nnc12`, which Potency is on record?
The Potency was “inactive”.

For `O=C(O)c1cc(N/N=C/c2ccc(-c3ccccc3)cc2)ccc1Cl`, which Potency is on record?
Its Potency is inconclusive: 89.1 µM [inhibitor, single point].

For `Cc1cc(C(=O)NCc2ccccc2Br)no1`, which Potency is on record?
Its Potency is “inactive”.

Which Potency does the source give for `COc1ccc(C2CC(c3ccc([N+](=O)[O-])cc3)=NN2C(C)=O)cc1` (stereo not drawn) here?
Its Potency is inconclusive: 70.8 µM [inhibitor, single point].

With `O=C1CC(c2ccccc2Oc2cccc(Cl)c2)C(n2cncn2)C(=O)C1C1NCCc2ccccc21` (stereo not drawn) as the molecule, how does the Potency read?
The Potency was inconclusive: 35.5 µM [inhibitor, partial curve].

`O=C(NC(=S)NC1CCN(Cc2ccccc2)CC1)c1ccc(F)cc1` was tested. Which Potency did it give?
The Potency was inconclusive: 44.7 µM [inhibitor, partial curve].

With `Cc1cc(C)n2nc(C(=O)OCC(=O)c3cc(C)n(C)c3C)nc2n1` as the molecule, how does the Potency read?
The Potency was active: 50.1 µM.

With `COc1cccc2sc(N(Cc3cccnc3)C(=O)Cc3ccccc3)nc12` as the molecule, how does the Potency read?
Its Potency is inconclusive: 89.1 µM [inhibitor, single point].

Which Potency does the source give for `Cc1ccc(/C=N/n2c(-c3ccco3)n[nH]c2=S)cc1` here?
The Potency was inconclusive: 44.7 µM [inhibitor, partial curve].

Which Potency does the source give for `CCN1CCN(c2cc3c(cc2F)c(=O)c(S(=O)(=O)c2ccc(OC)cc2)cn3CC)CC1` here?
The Potency was “inactive”.

Which Potency does the source give for `C=CCN1C(=O)C(Cc2ccc(C)cc2)S/C1=N/N=C/c1ccco1` (stereo not drawn) here?
Its Potency is inconclusive: 39.8 µM [inhibitor, full curve, poor fit].

Which Potency does the source give for `CC(OC(=O)c1cccc(-n2cnnn2)c1)C(=O)Nc1ccccc1F` (stereo not drawn) here?
The Potency was “inactive”.

`CCCN(CCC)S(=O)(=O)c1ccc(C(=O)N2CCOCC2)cc1` was tested. Which Potency did it give?
The Potency was “inactive”.

With `O=C(CSc1ccccc1)Nc1ccccc1C(=O)O` as the molecule, how does the Potency read?
Its Potency is “inactive”.

For `CCCN(CCC)S(=O)(=O)c1ccc(NC(=O)Cc2cccs2)cc1`, which Potency is on record?
The Potency was inconclusive: 44.7 µM [inhibitor, partial curve].

`COc1ccc(CCN2CCCC(CN(C)C(=O)c3ccoc3C)C2)cc1` (stereo not drawn) was tested. Which Potency did it give?
The Potency was inconclusive: 50.1 µM [inhibitor, partial curve].

Which Potency does the source give for `O=C(Nc1cccc(Cl)c1)c1ccc(S(=O)(=O)NCC2CCCO2)cc1` (stereo not drawn) here?
Its Potency is “inactive”.

How did the Potency turn out when `Cc1cc(C)nc(NC(=O)CSc2nn(-c3ccccc3)c(=S)s2)n1` was run?
The Potency was active: 79.4 µM.

Which Potency does the source give for `Cc1nn(-c2ccccc2)c(C)c1C(=O)OCC(=O)Nc1cccc(S(N)(=O)=O)c1` here?
The Potency was “inactive”.

With `CCCOC(=O)C1=C(C)NC(=O)NC1c1ccc(Br)s1` (stereo not drawn) as the molecule, how does the Potency read?
Its Potency is “inactive”.

With `S=c1[nH]nc(COc2ccccc2)n1/N=C/C=C/c1ccccc1` as the molecule, how does the Potency read?
The Potency was inconclusive: 89.1 µM [inhibitor, single point].

`COc1ccc(-c2noc(N3CCC(C(=O)Nc4cc(OC)c(OC)c(OC)c4)CC3)n2)cc1` was tested. Which Potency did it give?
The Potency was “inactive”.

For `CCCCN(C)C/C(O)=C(\C#N)c1nc(-c2ccccc2)cs1`, which Potency is on record?
The Potency was inconclusive: 70.8 µM [inhibitor, single point].

`O=C(Nc1cccc(Br)c1)c1cc(S(=O)(=O)N2CCOCC2)cs1` was tested. Which Potency did it give?
Its Potency is “inactive”.

With `Cc1ccc(-c2cc(C(=O)N/N=C/c3c(C)nn(-c4ccccc4)c3C)n[nH]2)s1` as the molecule, how does the Potency read?
The Potency was inconclusive: 79.4 µM [inhibitor, single point].

For `CN(C)Cc1c(O)ccc2ccccc12`, which Potency is on record?
Its Potency is “inactive”.

How did the Potency turn out when `c1ccc(C[C@H]2CNCCN2CCc2cccc3ccccc23)cc1` was run?
The Potency was inconclusive: 89.1 µM [inhibitor, single point].

How did the Potency turn out when `N#CC1=C(N)N(c2ccccc2C#N)C2=C(C(=O)CCC2)C1c1ccsc1` (stereo not drawn) was run?
Its Potency is active: 56.2 µM.

How did the Potency turn out when `Cc1ccc(Nc2nc3c(S(=O)(=O)c4ccccc4)nnn3c3ccsc23)c(C)c1` was run?
Its Potency is inconclusive: 79.4 µM [inhibitor, single point].

With `O=C1C(=O)N(Cc2cccnc2)C(c2cccc(O)c2)/C1=C(\O)c1ccc2c(c1)OCCO2` (stereo not drawn) as the molecule, how does the Potency read?
Its Potency is inconclusive: 89.1 µM [inhibitor, single point].

With `Cc1cc(C)n2nc(C(=O)NCc3ccccc3)nc2n1` as the molecule, how does the Potency read?
The Potency was “inactive”.

For `Cc1ccc(CN(C(=O)COc2ccc(Cl)c(C)c2)C2CCS(=O)(=O)C2)o1` (stereo not drawn), which Potency is on record?
Its Potency is inconclusive: 79.4 µM [inhibitor, single point].

For `Cc1ccc(Cl)cc1NC(=O)Cn1c(=O)n(CCCS(=O)(=O)C2CCCCC2)c(=O)c2ccccc21`, which Potency is on record?
Its Potency is inconclusive: 89.1 µM [inhibitor, single point].

Which Potency does the source give for `Cc1csc2nc(COC(=O)c3ccccc3NC(=O)COc3ccccc3F)cc(=O)n12` here?
Its Potency is inconclusive: 89.1 µM [inhibitor, single point].

For `O=C(c1cccc2c1C(=O)N(Cc1cccnc1)C2)N1CCN(c2ccccc2)CC1`, which Potency is on record?
The Potency was inconclusive: 79.4 µM [inhibitor, single point].

Which Potency does the source give for `CCc1ccc(NC(=O)C2=CC(c3ccc(OC)cc3)=NS(=O)(=O)N2C)cc1` here?
The Potency was inconclusive: 22.4 µM [inhibitor, full curve].

`CCCNC(=O)c1cnc(Sc2ncc(C(F)(F)F)cc2Cl)n1C` was tested. Which Potency did it give?
Its Potency is active: 50.1 µM.

How did the Potency turn out when `Cc1ccc(-n2c(=O)c3c4c(sc3n(Cc3cccc(Cl)c3)c2=O)CCC4)cc1C` was run?
Its Potency is “inactive”.

For `CCOc1ccc2nc(SC3CC(=O)N(c4ccc(OC)cc4)C3=O)sc2c1` (stereo not drawn), which Potency is on record?
Its Potency is “inactive”.

For `CCOc1ccc(Nc2ncnc3c2cnn3Cc2ccccc2)cc1`, which Potency is on record?
Its Potency is inconclusive: 79.4 µM [inhibitor, single point].

How did the Potency turn out when `COC(=O)c1sccc1NC(=O)Nc1ccc(C)cc1C` was run?
Its Potency is “inactive”.

`COc1ccc(C(=O)COC(=O)c2ccc(OC)c(OC)c2)cc1OC` was tested. Which Potency did it give?
The Potency was “inactive”.

`Cc1c(C(=O)O)cccc1[N+](=O)[O-]` was tested. Which Potency did it give?
Its Potency is inconclusive: 89.1 µM [inhibitor, single point].

Which Potency does the source give for `c1ccc(CCCN2CCN(c3ccccn3)CC2)cc1` here?
Its Potency is inconclusive: 89.1 µM [inhibitor, single point].

How did the Potency turn out when `Cn1c(=O)cc(OCC(=O)NCc2cccs2)c2ccccc21` was run?
The Potency was inconclusive: 89.1 µM [inhibitor, single point].

Which Potency does the source give for `COc1cc(/C=C2\CCc3c2nc2ccccc2c3C(=O)O)cc(OC)c1OC` here?
The Potency was active: 44.7 µM.

`CCOc1cc(/C=C2\COc3ccccc3C2=O)cc(Br)c1OCC(=O)N(C)C` was tested. Which Potency did it give?
Its Potency is inconclusive: 63.1 µM [inhibitor, partial curve, poor fit].

Which Potency does the source give for `CCOc1cc(C2C3=C(CC(C)(C)CC3=O)OC3=C2C(=O)CC(C)(C)C3)cc([N+](=O)[O-])c1O` here?
Its Potency is inconclusive: 50.1 µM [inhibitor, partial curve].

Which Potency does the source give for `COc1ccccc1/C=C/C1=NC(=C\C=C/c2ccccc2)/C(=O)O1` here?
Its Potency is inconclusive: 39.8 µM [inhibitor, partial curve].

For `O=C(O)COCc1nc2ccccc2s1`, which Potency is on record?
Its Potency is “inactive”.

For `O=C(OCC(=O)c1cccs1)c1ccc([N+](=O)[O-])o1`, which Potency is on record?
Its Potency is inconclusive: 89.1 µM [inhibitor, single point].

Which Potency does the source give for `COc1ccccc1COC(=O)N/C=C/c1ccco1` here?
The Potency was inconclusive: 50.1 µM [inhibitor, partial curve].

With `O=C(/C=C/c1ccncc1)c1cc(Cl)ccc1O` as the molecule, how does the Potency read?
Its Potency is active: 44.7 µM.

With `CN(C)c1ccc(C(CNS(=O)(=O)c2ccc([N+](=O)[O-])cc2)N2CCOCC2)cc1` (stereo not drawn) as the molecule, how does the Potency read?
The Potency was inconclusive: 79.4 µM [inhibitor, single point].

For `COc1ccc(/C=C2\SC(=S)N(Cc3cccnc3)C2=O)cc1C`, which Potency is on record?
The Potency was active: 10 µM.

How did the Potency turn out when `Cc1cccc(N2C(=O)c3cccc4c(N5CCCCC5)c([N+](=O)[O-])cc(c34)C2=O)c1C` was run?
The Potency was inconclusive: 3.16 µM [inhibitor, full curve].

Which Potency does the source give for `Cc1cc(C(=O)OCC(=O)Nc2cccc(S(=O)(=O)N(C)C)c2)c2ccccc2n1` here?
The Potency was “inactive”.

With `O=C(CSc1nnc(COc2ccccc2)n1Cc1ccco1)Nc1ccc2c(c1)OCCO2` as the molecule, how does the Potency read?
The Potency was inconclusive: 79.4 µM [inhibitor, single point].
